The whole screen tested about 350,000 compounds, of which about 9,900 (2.8%) were called active. Inconclusive results, whose numbers are uncertain, are shown with a selection of clear calls. Calls follow the shape of the dose curve; as a rule, active = well fitted activation curve with a large enough effect; inconclusive = small, poorly fitted or top-dose-only effect; inactive = no such curve, though single readings can be large or run the other way. Potencies of inconclusive entries are left out as doubtful fits.
Test: A quantitative high throughput screen for small molecules that induce DNA re-replication in MCF 10a normal breast cells. Also: nearly all actives have a fitted effect of over 50% in size.
Conditions: MCF 10A DNA re-replication, Hoechst nuclear intensity, 48 h; series mostly up to 46.1 µM
Potency is read from the fitted curve at half-maximal effect; tags tell the direction and shape of the fitted curve.

| Structure (SMILES) | Potency |
| --- | --- |
| C=CCn1c(O)c(N=Nc2c(C)n(C)n(-c3ccccc3)c2=O)c(=O)[nH]c1=S | inactive |
| O=C(c1cc2c(s1)-c1ccccc1OC2)N1CCC2(CC1)OCCO2 | inconclusive [activator, single point] |
| O=[N+]([O-])c1ccc(N2CCNCC2)c(Cl)c1 | active: 7.31 µM |
| O=C1NC(=S)SC1=Cc1ccc(N(CCCl)CCCl)cc1 | inconclusive [activator, single point] |
| CCC(=O)N1N=C(c2c(O)n(CCc3ccccc3)c(=O)[nH]c2=O)CC1c1ccc(OC)c(OC)c1 (stereo not given) | inconclusive [activator, partial curve, poor fit] |
| CCC12C=CCN3CCC4(c5cc(Br)c(OC)cc5N(C)C4C(O)(C(=O)OC)C1OC(C)=O)C32 (stereo not given) | inactive |
| O=C(Nc1ccc(Cl)c(C(F)(F)F)c1)NC1CC2CCCC(C1)N2Cc1ccccc1 (stereo not given) | inconclusive [activator, single point] |
| CC/C(=C(\c1ccc(O)cc1)c1ccc(OCCN(C)C)cc1)c1ccccc1 | inconclusive [activator, partial curve] |
| CC(=O)NC(Cc1ccc(N(CCCl)CCCl)cc1)C(=O)O (stereo not given) | inconclusive [activator, single point] |
| O=P(Nc1ccccc1)(Nc1ccccc1)Oc1ccc(Cl)cc1 | inconclusive [activator, single point] |
| CCN(CC)C(=O)Oc1cc2c(-c3cc4cccc(OC)c4o3)cc(=O)oc2cc1C | inconclusive [activator, single point] |
| COc1ccc2c(c1)c(CCN)c(C)n2Cc1ccccc1 | inactive |
| C=CCN1C(=O)NC(=O)/C(=C/C=C/c2ccccc2)C1=O | inconclusive [activator, single point] |
| C/C=C/C(=O)OCC(=O)Nc1ccc(OC)c(Cl)c1 | inconclusive [activator, single point] |
| Cc1cccc(-n2c(O)c(/C=C/C=Nc3ccccc3)c(=O)[nH]c2=O)c1 | inactive |
| CCOc1ccc(NC(=O)c2c(C)nn(Cc3ccccc3)c2Cl)cc1 | inconclusive [activator, single point] |
| Oc1cc(Cl)c(Cl)c(Cl)c1Cl | active: 14.6 µM |
| c1ccc(CCc2ccc3n2Cc2cnnn2-c2ccccc2-3)cc1 | inconclusive [activator, single point] |
| CCOC(=O)c1c(-n2c(C)cc(C=C3C(=O)NC(=S)NC3=O)c2C)sc2c1CCCC2 | active: 18.4 µM |
| COc1ccccc1-n1c(/C=C/c2ccccn2)nc2ccccc2c1=O | inconclusive [activator, single point] |
| CCN1CCN(C(=O)Cc2coc3ccc4ccccc4c23)CC1 | inconclusive [activator, single point] |
| O=c1cc(-c2ccc(O)cc2)oc2c(C3O[C@H](CO)[C@@H](O)[C@H](O)[C@H]3O)c(O)cc(O)c12 (stereo not given in full) | inactive |

| Structure (SMILES) | Potency |
| --- | --- |
| c1ccc(NC2=NCCS2)cc1 | inactive |
| Cc1cc(=O)oc2c(C)c(OCC(=O)N3CCC(C(=O)O)(c4ccccc4)CC3)ccc12 | inactive |
| COc1ccn(C)c(=O)c1C#N | inconclusive [activator, full curve, poor fit] |
| c1ccc2c(N3CCNCC3)nsc2c1 | inconclusive [activator, partial curve] |
| C[C@]12CC[C@H]3[C@@H](CC[C@@]45O[C@@H]4C(=O)C(C#N)C[C@]35C)[C@@H]1CC[C@@H]2O (stereo not given in full) | inconclusive [activator, partial curve] |
| Cc1ncc2n1-c1ccc(Cl)cc1C(c1ccccc1F)=NC2 | inconclusive [activator, partial curve, poor fit] |
| O=C(O)c1cc(Oc2ccc(C(F)(F)F)cc2Cl)ccc1[N+](=O)[O-] | inactive |
| COCCNC(=O)N1[C@H]2CC[C@@H]1C(C(=O)OC)=C(c1ccc(OC)c(OC)c1)C2 | inconclusive [activator, full curve, poor fit] |
| OCC1CN1C1CCCCC1 (stereo not given) | inactive |
| O=C(COc1ccc(Cl)cc1)N1CCN(C/C=C/c2ccccc2)CC1 | inconclusive [activator, single point] |
| CN1CCN(c2ccc([N+](=O)[O-])c(NCc3ccco3)c2)CC1 | inconclusive [activator, partial curve, poor fit] |
| COC(=O)c1ccccc1C(=O)c1ccc(OCCN2CCCCC2)cc1 | inconclusive [activator, partial curve, poor fit] |
| COC(=O)C1=C(c2ccc(OCc3ccccc3)cc2)C[C@@H]2CC[C@H]1N2C(=O)NCc1cccc(OC)c1 | inconclusive [activator, single point] |
| O=C(N/N=C/c1c(O)n(Cc2ccc(F)cc2)c(=S)[nH]c1=O)c1ccncc1 | inconclusive [activator, partial curve, poor fit] |
| COC(=O)C1=C(c2ccc(C(C)=O)cc2)C[C@@H]2CC[C@H]1N2C(=O)NCc1ccco1 | inconclusive [activator, full curve, poor fit] |
| CCOC(=O)C1=C(N)OC2=C(C(=O)CCC2)C12C(=O)N(C)c1ccccc12 (stereo not given) | inactive |
| Cc1nc2ccc(Nc3nc4cc(S(=O)(=O)N5CCOCC5)ccc4o3)cc2s1 | inconclusive [activator, single point] |
| CC(=O)Nc1ccc(S(=O)(=O)N2Cc3cnnn3-c3ccccc3C2C#N)cc1 (stereo not given) | inconclusive [activator, single point] |
| COC(=O)c1nc(-c2ccc3c(n2)C(=O)C(N)=C(OC)C3=O)c(N)c(-c2ccc(OC)c(OC)c2O)c1C | inconclusive [activator, single point] |
| CN1C[C@H](C(=O)N[C@]2(C)O[C@@]3(O)[C@@H]4CCCN4C(=O)[C@H](Cc4ccccc4)N3C2=O)CC2c3cccc4[nH]cc(c34)C[C@H]21 (stereo not given in full) | inconclusive [activator, full curve, poor fit] |
| COc1ccc(CNCCc2ccccc2F)c(OC)c1C | inconclusive [activator, single point] |
| C=CCNc1nnc(Sc2ncccc2[N+](=O)[O-])s1 | inconclusive [activator, single point] |

| Structure (SMILES) | Potency |
| --- | --- |
| O=[N+]([O-])c1ccc2c(c1)Cc1cc(O)ccc1-2 | inconclusive [activator, single point] |
| CCOC(=O)c1c(NC(=O)c2c(N)n(CCCOC)c3nc4ccccc4nc23)sc2c1CCCC2 | inconclusive [activator, partial curve, poor fit] |
| CCCCCn1c(=O)c(C(=O)Nc2cnccn2)c(O)c2ccccc21 | active: 16.4 µM |
| O=C1NC(=O)N(c2ccccc2)C(=O)/C1=C/c1ccc(Sc2ccccc2)o1 | inconclusive [activator, single point] |
| COc1cc2c(cc1OC)C(C(=O)N(C)C1CCCCC1)C1CCCCN1C2=O (stereo not given) | inconclusive [activator, single point] |
| CC1(C)C(=O)C=C[C@]2(C)[C@H]3CC[C@@]4(C)[C@H](c5ccoc5)OC(=O)[C@H]5O[C@]54[C@]3(C)[C@H](O)C[C@@H]12 | inconclusive [activator, single point] |
| CN1CCN(c2ccc(N)cc2Cl)CC1 | inactive |
| CC(C)n1cc(C(=O)N(CC(=O)NC(C)(C)C)Cc2ccccc2)cn1 | inconclusive [activator, single point] |
| O=C(NP(=O)(N1CC1)N1CC1)c1cc(I)ccc1I | inconclusive [activator, single point] |
| Cc1ccc(C(=O)Nc2nc3ccccc3[nH]2)cc1 | inconclusive [activator, partial curve, poor fit] |
| Cc1ccc(S(=O)(=O)c2nc(-c3ccccc3Cl)oc2N(C)C2CCN(C)CC2)cc1 | inconclusive [activator, partial curve] |
| O=Cc1cn(Cc2ccc(F)cc2Cl)c2ccccc12 | inconclusive [activator, partial curve, poor fit] |
| Cc1c(CC(=O)N2C[C@H]3C[C@@H](C2)c2cccc(=O)n2C3)c(=O)oc2cc(O)c(Cl)cc12 | inactive |
| Cc1c(C)c2c(OCC(=O)N[C@@H](C)C(=O)O)cc3c(c2oc1=O)CCC(C)(C)O3 | inactive |
| O=C(CSc1ncnc2c1nnn2-c1ccc(F)cc1)NCC1CCCO1 (stereo not given) | inconclusive [activator, single point] |
| O=C1c2ccccc2C(=O)N1SC1CCCCC1 | inconclusive [activator, single point] |
| COC(=O)C1=C(c2cccc(OCc3ccccc3)c2)C[C@@H]2CC[C@H]1N2C(=O)NCc1cccc(OC)c1 | inconclusive [activator, single point] |
| O=C1NC(=S)NC(=O)C1=Cc1cccc2cc3ccccc3cc12 | inconclusive [activator, single point] |
| Cc1ccc(N2C(=O)NC(=O)/C(=C\C=C\c3ccco3)C2=O)cc1C | active: 5.8 µM |
| CC(C)CCCn1c(O)c(/C=C2/C=CC=N2)c(=O)[nH]c1=O | active: 18.4 µM |
| Cc1ccc(OP(=O)(NCc2ccccc2)Oc2ccc(C)cc2)cc1 | inconclusive [activator, single point] |

From PubChem BioAssay AID624296 (National Center for Advancing Translational Sciences (NCATS), 2012)
